Where “and” joins values, the source holds several entries; their conditions need not be identical. Equal entries are not always repeated. Screen size: about 16,000 compounds; about 40 (0.2%) were called active. Another 1% or so got no clear call; they are omitted. Calls follow the shape of the dose curve; as a rule, active = well fitted activation curve with a large enough effect; inconclusive = small, poorly fitted or top-dose-only effect, or another doubt; inactive = no such curve, though single readings can be large or run the other way. Some of the results follow.
% is scaled to controls: 0 for no effect and ±100 for the full control effect.

UniProt Q8WZA2, sequence (Q8WZA2 whole entry, looked up): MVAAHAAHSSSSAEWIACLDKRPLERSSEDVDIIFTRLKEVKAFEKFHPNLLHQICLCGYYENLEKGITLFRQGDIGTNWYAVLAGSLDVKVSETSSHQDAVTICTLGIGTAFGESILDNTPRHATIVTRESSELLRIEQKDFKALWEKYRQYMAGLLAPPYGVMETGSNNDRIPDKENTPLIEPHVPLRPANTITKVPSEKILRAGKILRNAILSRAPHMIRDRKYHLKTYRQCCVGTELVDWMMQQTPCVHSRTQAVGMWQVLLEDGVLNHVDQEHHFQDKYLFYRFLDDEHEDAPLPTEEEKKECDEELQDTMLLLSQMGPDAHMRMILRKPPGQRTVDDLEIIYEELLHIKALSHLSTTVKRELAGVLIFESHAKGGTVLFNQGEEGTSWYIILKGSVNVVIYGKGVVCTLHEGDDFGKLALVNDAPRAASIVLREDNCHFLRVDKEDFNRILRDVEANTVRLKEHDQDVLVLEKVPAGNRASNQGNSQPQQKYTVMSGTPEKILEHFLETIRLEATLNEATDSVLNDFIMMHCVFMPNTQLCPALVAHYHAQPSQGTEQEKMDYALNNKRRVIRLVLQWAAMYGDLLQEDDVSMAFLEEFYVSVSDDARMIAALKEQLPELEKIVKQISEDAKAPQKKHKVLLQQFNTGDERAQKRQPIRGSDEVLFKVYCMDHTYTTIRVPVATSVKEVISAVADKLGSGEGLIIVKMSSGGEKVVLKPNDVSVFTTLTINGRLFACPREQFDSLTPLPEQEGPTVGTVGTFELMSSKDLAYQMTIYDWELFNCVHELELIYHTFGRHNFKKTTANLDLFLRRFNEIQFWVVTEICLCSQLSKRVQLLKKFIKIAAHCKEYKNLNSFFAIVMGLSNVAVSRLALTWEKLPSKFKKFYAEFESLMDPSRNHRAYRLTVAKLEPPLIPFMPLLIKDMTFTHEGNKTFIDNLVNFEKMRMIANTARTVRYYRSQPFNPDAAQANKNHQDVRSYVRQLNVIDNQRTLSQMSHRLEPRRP

The target in the experiment is Rap guanine nucleotide exchange factor 4 (Homo sapiens) (UniProt Q8WZA2). The experiment is described as follows: Validation qHTS for agonist of cAMP-regulated guanine nucleotide exchange factor 4 (EPAC2).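 Also: exchange makes BODIPY-GDP fluorescence drop when released from Rap1B; series mostly up to about 150 µM.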 Conditions: EPAC2 Rap1B BODIPY-GDP exchange, fluorescence; activation: active compounds read high. The gist of the method:
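Signal normalized against 6.5 mM cAMP as agonist control. Mix of EPAC2 (100 nM), RAP1B-BODIPY-GDP (250 nM) and GDP (50 uM) was read kinetically at 480/540 nm, every 5 min over 30 min, after 5 min room-temperature incubation with compound.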
Background: Quantitative high-throughput screening tests each substance at several concentrations.
Turning to `CN(C)c1ncc2nc(-c3ccccc3)c(=O)n(Cc3cccs3)c2n1`, the activation is inactive: -10.2%. As for `Cc1ccc(C(=O)NCCc2nnc3n2CCN(Cc2ccnc4ccccc24)CC3)c(C)c1`, the activation is inactive: -8.07%. With `O=C(C[C@H]1C(=O)N(c2ccc(F)c(F)c2)C[C@@H]1Cc1ccccc1)Nc1ccccc1` the figure was inactive: -26.6%. Regarding `CC1(C)S[C@@H]2[C@H](NC(=O)C(C(=O)Oc3ccc4c(c3)CCC4)c3ccccc3)C(=O)N2[C@H]1C(=O)O` (stereo partly drawn), the activation was inactive: -23.3%.

Turning to `COc1ccccc1-c1cc(NCc2cccnc2)ncn1`, the activation is inactive: -4.05%.

For `Cc1cccc(C(=O)O[C@H]2[C@H](Cc3ccccc3)NS(=O)(=O)[C@H]3CC4C=C[C@]23O4)c1`, the activation was inactive: -36%. For `Cc1cc(C(=O)NNCc2ccccc2)no1`, the activation was inactive: 0.6%.

As to `Cc1ccccc1-c1cc(Nc2ccccc2)ncn1`, the activation was inactive: -10.4%.

Regarding `COc1ccc2c(c1)CC[C@@H]1[C@@H]2CC[C@]2(C)[C@@H](NCCCCCCN3C(=O)C=CC3=O)CC[C@@H]12`, the activation was inactive: 3.17%. With `CC(C)c1c(C(=O)NCC2(N3CCOCC3)CCCC2)cnn1-c1nccc(-c2cccs2)n1` the figure was inactive: 6.09%; with `COc1ccc(OC)c(/C=C/c2cc3ccccc3cn2)c1`, inactive: -9.69%; with `COC(=O)c1cccc(C(=O)NCc2nc(-c3ccccc3NC(C)=O)oc2C)c1`, inactive: -1.54%. As to `COc1ccc(-c2ccc(=N)n(CCCC(=O)O)n2)cc1`, the activation was inactive: -13.7% and inactive: 9.64%. Take `Cn1ccc(C(=O)NCC2CCC3(CCN(Cc4cc(F)cc(F)c4)CC3)O2)n1` (stereo not drawn): the activation was inactive: 1.02%. The result for `C=C1CC[C@@H]2O[C@@]2(C)CC[C@H]2[C@H]1CC2(C)C` reads inactive: -14.1%; that for `CC(C)(S)[C@@H](N)C(=O)O`, inactive: 9.65%; that for `CC1=CC(=O)C2=C(C)C[C@H](OC(=O)Cc3ccccc3)C3[C@H](OC(=O)[C@H]3C)C12` (stereo partly drawn), inactive: -38.8%. In the case of `C=CCCCCCCCCCCCC(O)CC(O)COC(C)=O` (stereo not drawn), the activation is inactive: -55.6%. With `CN(Cc1cccc2ncccc12)C(=O)c1cnn(-c2nccc(-c3ccccc3F)n2)c1C1CC1`, the activation was inactive: -30.8%.

With `COc1ccc(Oc2ncc3nc(-c4ccc(F)cc4)c(=O)n(C[C@H]4CCCO4)c3n2)cc1`, the activation is inactive: 4.33%. Consider `CC(=O)Oc1c(-c2ccccc2)oc2c(CC=C(C)C)c3c(c(OC(C)=O)c2c1=O)C=CC(C)(C)O3`, for which the activation was inactive: -6.7%. The result for `CC(N)(C(=O)O)c1ccc(P(=O)(O)O)cc1` (stereo not drawn) reads inactive: 2.19%.

On to `Cc1cnc(CNc2ccnc(-c3ccccc3CN(C)C)n2)cn1`, for which the activation is inactive: -13.8%.

These data come from PubChem BioAssay AID1645887 (National Center for Advancing Translational Sciences (NCATS), 2021).
